Some of the results follow. No stated cut-off is given here; in the data, active = 3.2 or more and inactive = the rest. Only a few entries rise above the background.
B1: HINT1_Y94_G89V (peptide)
chain: VLNKGYRMVVN
B2: HIPK4_Y170 (peptide)
chain: FSEVRYVKEPY
B3: HIPK4_Y170_YF (peptide)
chain: FSEVRYVKEPF
B4: HIPK4_Y175 (peptide)
chain: YVKEPYIQSRF
B5: HIPK4_Y175_V171M_YF (peptide)
chain: FMKEPYIQSRF
B6: HJURP_Y445 (peptide)
chain: QLHREYCLSPR
B7: HK1_Y417_G414E (peptide)
chain: VDESLYKTHPQ
B8: HK1_Y461 (peptide)
chain: VTAVAYRLAEQ
B9: HK1_Y461_T457M (peptide)
chain: VMAVAYRLAEQ
B10: HLA-A_Y123_I119L (peptide)
chain: TLQIMYGCDVG
B11: HLA-A_Y123_I119V (peptide)
chain: TVQIMYGCDVG
B12: HLA-A_Y137 (peptide)
chain: RFLRGYRQDAY
B13: HLA-A_Y137_F133L (peptide)
chain: RLLRGYRQDAY
B14: HLA-A_Y137_R138E_YF (peptide)
chain: RFLRGYEQDAF
B15: HLA-A_Y137_R138H (peptide)
chain: RFLRGYHQDAY
B16: HLA-A_Y137_R138Q (peptide)
chain: RFLRGYQQDAY
B17: HLA-A_Y137_R138Q_YF (peptide)
chain: RFLRGYQQDAF
B18: HLA-A_Y137_YF (peptide)
chain: RFLRGYRQDAF
B19: HLA-A_Y140 (peptide)
chain: RGYRQDAYDGK
B20: HLA-A_Y147_N151K (peptide)
chain: YDGKDYIALKE
B21: HLA-A_Y147_YF (peptide)
chain: FDGKDYIALNE
B22: HLA-A_Y195_W191G (peptide)
chain: EGLRRYLENGK
B23: HLA-A_Y195_Y195H (peptide)
chain: EWLRRHLENGK
B24: HLA-A_Y344 (peptide)
chain: RKGGSYTQAAS
B25: HLA-A_Y344_T345S (peptide)
chain: RKGGSYSQAAS
B26: HLA-A_Y83_E87N (peptide)
chain: QEGPEYWDQNT
B27: HLA-A_Y83_G80R (peptide)
chain: QERPEYWDQET
B28: HLA-A_Y83_Q86L (peptide)
chain: QEGPEYWDLET
B29: HLA-A_Y83_Q86R (peptide)
chain: QEGPEYWDRET
B30: HLA-B_Y123_L119I (peptide)
chain: TIQSMYGCDVG
B31: HLA-B_Y123_L119W (peptide)
chain: TWQSMYGCDVG
B32: HLA-B_Y123_S121N (peptide)
chain: TLQNMYGCDVG
B33: HLA-B_Y123_S121T (peptide)
chain: TLQTMYGCDVG
B34: HLA-B_Y123_S121V (peptide)
chain: TLQVMYGCDVG
B35: HLA-B_Y123_S121W (peptide)
chain: TLQWMYGCDVG
B36: HLA-B_Y123_Y123F (peptide)
chain: TLQSMFGCDVG
B37: HLA-B_Y123_Y123S (peptide)
chain: TLQSMSGCDVG

molecular target: SHP2 C-SH2 domain E139D; assay: enrichment score (SH2-bound / input frequency) (ratio); bacterial display of known human phosphotyrosine sites (pTyr-Var adds point mutants) read by sequencing; higher = stronger binding; tyrosines were phosphorylated by kinases first; settings: peptide library: pTyr-Var
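Further: displayed peptides selected on beads carrying the immobilized SH2 domain, with library peptides lacking any tyrosine serving as negative controls.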

Enrichment score, inactive:
B1 0.682
B2 1.02
B3 0.784
B4 0.778
B5 0.86
B6 0.997
B7 0.591
B8 0.89
B9 1.71
B10 0.986
B11 0.783
B12 0.175
B13 0.239
B14 0.925
B15 0.577
B16 0.67
B17 0.995
B18 0.337
B19 0.266
B20 0.793
B21 0.837
B22 0.562
B23 0.895
B24 0.911
B25 0.498
B26 0.494
B27 0.562
B28 0.66
B29 0.4
B30 0.958
B31 1.03
B32 0.695
B33 0.851
B34 1.31
B35 0.625
B36 1.41
B37 0.739

molecular target: SHP2 C-SH2 domain wild-type; assay: as above; settings: peptide library: pTyr-Var

Enrichment score, inactive:
B1 0.477
B2 1.11
B3 0.721
B4 1
B5 0.501
B6 0.876
B7 0.551
B8 0.925
B9 1.67
B10 1.34
B11 1.05
B12 0.237
B13 0.21
B14 0.885
B15 0.78
B16 0.49
B17 0.9
B18 0.141
B19 0.349
B20 0.761
B21 0.813
B22 0.439
B23 0.824
B24 0.511
B25 0.64
B26 0.769
B27 0.567
B28 0.92
B29 0.505
B30 0.814
B31 1.09
B32 0.836
B33 0.619
B34 1.17
B35 0.861
B36 1.26
B37 0.852

molecular target: SHP2 N-SH2 domain L43F; assay: as above; settings: peptide library: pTyr-Var

Enrichment score, inactive:
B1 0.772
B2 0.748
B3 1.03
B4 0.748
B5 0.811
B6 1.24
B7 0.627
B8 2.9
B9 2.2
B10 0.886
B11 0.76
B12 0.229
B13 0.38
B14 0.815
B15 0.728
B16 0.522
B17 0.72
B18 0.255
B19 0.455
B20 0.852
B21 0.851
B22 0.609
B23 0.842
B24 0.397
B25 0.903
B26 0.846
B27 0.464
B28 0.732
B29 0.489
B30 0.727
B31 0.671
B32 0.91
B33 0.748
B34 0.938
B35 0.925
B36 0.788
B37 0.704

molecular target: SHP2 N-SH2 domain T42A; assay: as above; settings: peptide library: pTyr-Var

Enrichment score, inactive:
B1 0.663
B2 0.734
B3 1.27
B4 0.513
B5 0.971
B6 0.919
B7 0.544
B8 0.961
B9 1.17
B10 0.876
B11 0.791
B12 0.213
B13 0.242
B14 0.883
B15 0.44
B16 0.524
B17 0.758
B18 0.202
B19 0.392
B20 0.634
B21 0.6
B22 0.418
B23 0.83
B24 0.596
B25 0.45
B26 0.558
B27 0.468
B28 0.697
B29 0.498
B30 0.729
B31 0.731
B32 0.566
B33 0.757
B34 1.1
B35 0.804
B36 0.798
B37 0.557

molecular target: SHP2 N-SH2 domain T52S; assay: as above; settings: peptide library: pTyr-Var

Enrichment score, active:
B8 3.39

Enrichment score, inactive:
B1 0.683
B2 0.771
B3 0.75
B4 0.693
B5 0.895
B6 0.984
B7 0.618
B9 2.34
B10 1.09
B11 0.921
B12 0.328
B13 0.243
B14 1.08
B15 0.651
B16 0.406
B17 0.786
B18 0.34
B19 0.397
B20 0.761
B21 0.844
B22 0.61
B23 0.841
B24 0.533
B25 0.639
B26 0.539
B27 0.931
B28 0.754
B29 0.62
B30 0.651
B31 0.771
B32 0.71
B33 0.564
B34 1.26
B35 0.626
B36 0.833
B37 0.708

molecular target: SHP2 N-SH2 domain wild-type; assay: as above; settings: peptide library: pTyr-Var

Enrichment score, inactive:
B1 0.762
B2 1.26
B3 0.772
B4 0.733
B5 0.63
B6 1.1
B7 0.628
B8 1.11
B9 1.53
B10 1.54
B11 1.08
B12 0.183
B13 0.294
B14 0.872
B15 0.867
B16 0.661
B17 0.586
B18 0.382
B19 0.374
B20 0.871
B21 1.12
B22 0.523
B23 0.856
B24 0.568
B25 0.744
B26 0.58
B27 0.634
B28 1.07
B29 0.505
B30 0.702
B31 0.796
B32 0.642
B33 0.735
B34 1.21
B35 0.783
B36 1.13
B37 0.76
